# Assay results reported in PubChem BioAssay AID1454 (National Center for Advancing Translational Sciences (NCATS), 2008).
# The whole screen tested about 130,000 compounds, of which about 550 (0.42%) were called active. Inconclusive results, whose numbers are uncertain, are shown with a selection of clear calls. Calls come from the whole dose curve; as a rule, active = well fitted inhibition curve with a large enough effect; inconclusive = small, poorly fitted or top-dose-only effect, or effect the other way; inactive = flat fitted curve, though single readings scatter. Potencies of inconclusive entries are left out as doubtful fits.
# Assay: qHTS Assay for Inhibitors of the ERK Signaling Pathway using a Homogeneous Screening Assay; Stimulation with EGF; note: nearly all actives have a fitted effect of over 55% in size;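 for activity change, negative = inhibition: plate controls were stimulated vehicle wells for no effect and unstimulated vehicle basal for full effect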
# Conditions: HEK293-V1b, EGF-stimulated phospho-ERK AlphaScreen; activity change, negative = inhibition: at the top concentration
# Outline: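 Homogeneous cell-based phospho-ERK assay: HEK293/V1b cells in 1% FBS, compound 30 min then EGF 5 min, AlphaScreen luminescence. Activity normalized between DMSO and 25 nM EGF controls; AC50 from Hill modelling.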
# Potency is the fitted concentration of half-maximal effect; tags give direction and shape of the fitted curve.
SMILES,Potency,"activity change, negative = inhibition"
CCOC(=O)c1ccc(NC(=O)c2cc3c(s2)CCC3)cc1,"inconclusive [inhibitor, single point]",
O=C(N/N=C/c1cc(Br)ccc1O)c1ccncc1,,inactive: 0.818% [at 57.5 µM]
O=C(C[n+]1ccccc1)Nc1c(Cl)cc(Cl)cc1Cl,"inconclusive [inhibitor, single point]",
CCn1cc(C(=O)O)c(=O)c2cc(F)c(N3CCN(C(=S)NC(=O)c4ccc(Br)cc4)CC3)cc21,"inconclusive [inhibitor, partial curve]",
COC(=O)c1ccc(C(NC(=O)OCc2ccccc2)/C(=C/[C@@H](C)C(=O)NCc2ccc(-c3ccccc3)cc2)c2cccnc2)cc1 (some centres undefined),"inconclusive [inhibitor, partial curve]",
CC(=O)c1c(C)[nH]c(C(=O)NCc2ccccc2Cl)c1C,"inconclusive [inhibitor, single point]",
O=C(/C(=C/O)N=Nc1ccccc1)c1ccc(Cl)cc1,"inconclusive [inhibitor, single point]",
Oc1oc(-c2ccccc2Br)nc1/C=N/c1ccccn1,,inactive: 11%
CCCOC(=O)c1c(NC(=O)C2C3C=CC(C3)C2C(=O)O)sc2c1CCC(C)C2 (centres undefined),"inconclusive [inhibitor, single point]",
CN(C)c1cc[n+](CC(=O)N2c3ccccc3Sc3ccccc32)cc1,"inconclusive [inhibitor, single point]",
OCCNCc1cc(Br)ccc1OCc1ccc(Cl)cc1Cl,"inconclusive [inhibitor, single point]",
CCOC(=O)N1CN(C(=O)OCC)CN(C(=O)OCC)C1,,inactive: 4.29% [at 57.5 µM]
O=C(NNc1c2ccccc2nc2ccccc12)c1cccc(O)c1,"inconclusive [inhibitor, single point]",
CC[C@@H]1OC(=O)[C@H](C)[C@H](O[C@@H]2C[C@](C)(OC)[C@H](O)[C@H](C)O2)[C@H](C)[C@H](O[C@@H]2O[C@@H](C)C[C@@H](N(C)C)[C@@H]2O)[C@](C)(O)C[C@H](C)C(=NOCOCCOC)[C@H](C)[C@H](O)[C@]1(C)O,,inactive: 1.41% [at 25.7 µM]
CCOC(OCC)P(=O)(O)CCCNCc1ccc(Cl)c(Cl)c1,,inactive: -1.4%
Cc1cccc(CN2CCN(C(c3ccccc3)c3ccc(Cl)cc3)CC2)c1 (centres undefined),"inconclusive [inhibitor, partial curve, poor fit]",
CCP(=O)(CC)C(C)(C)CP(=O)(c1ccccc1)c1ccccc1,"inconclusive [inhibitor, partial curve]",
COC(=O)c1cccc(NC(=O)/C=C/c2ccc([N+](=O)[O-])cc2)c1,"inconclusive [inhibitor, single point]",
CCOC(=O)c1ccc(N/C=C/C(=O)C(C)(C)C)cc1,"inconclusive [inhibitor, partial curve]",
C=CCNC(=S)N/N=C/c1ccc(-c2ccc(Br)cc2)o1,,inactive: 3.99%
CCc1ccccc1NC1c2ccccc2C(=O)N1c1cc(C)ccn1 (centres undefined),"inconclusive [inhibitor, single point]",
Cc1cccc(NC(=O)Nc2cc(C)cc(C)n2)c1,"inconclusive [activator, full curve, poor fit]",
COc1ccc(/C(C)=N/NC(=O)c2sccc2-n2cccc2)cc1,"inconclusive [inhibitor, single point]",

SMILES,Potency,"activity change, negative = inhibition"
COc1ccc(Nc2ccc(S(=O)(=O)N3CCCCCC3)cc2[N+](=O)[O-])cc1,active: 20 µM,
O=C(NCc1nc2ccccc2[nH]1)C1=C[C@H](C2CCCCC2)C[C@H](OCc2ccc(CO)cc2)O1,"inconclusive [inhibitor, partial curve]",
COc1ccc(-n2c(=O)c(CCc3ccccc3)nc3cnc(N(C)C)nc32)cc1,,inactive: 3.8%
COc1ccc(-c2[nH]ncc2C=O)cc1,,inactive: 3.71%
CCCC[C@H]1C[C@@H]1[C@@H]1N(P(=O)(c2ccccc2)c2ccccc2)C[C@@](O)(c2ccccc2)CC12CC2,,inactive: 20.9%
Cc1cnc(NC(=O)c2cc3ccccc3o2)s1,"inconclusive [inhibitor, partial curve]",
NC(Cc1ccc(O)c(O)c1)C(=O)O (centres undefined),"inconclusive [inhibitor, partial curve]",
CC(C)(C)c1ccc(C(=S)N2CCN(c3ccccc3)CC2)cc1,"inconclusive [inhibitor, single point]",
CCC1C/C(=C\c2cccnc2)C(=O)/C(=C/c2cccnc2)C1 (centres undefined),,inactive: -5.56%
N#C/C(=C\C1=C(N2CCOCC2)C(=C\c2ccccc2)/CC1)C(=O)Nc1ccccc1F,active: 7.08 µM,
CCN1CCN(CCNC(=O)c2ccc3c(c2)N(Cc2ccc(F)cc2)C(=O)/C(=C/c2ccccc2)S3)CC1,"inconclusive [inhibitor, partial curve]",
CC(=O)n1cc(N(C(=O)CCl)c2ccccc2)c2ccccc21,,inactive: 0.925% [at 57.5 µM]
Cc1onc(-c2ccccc2Cl)c1C(=O)NC(=S)NCc1cccnc1,"inconclusive [activator, partial curve, poor fit]",
O=C1NC(=O)/C(=C\c2ccc(O)cc2O)S1,"inconclusive [inhibitor, single point]",
CCOC(=O)N1CCN(S(=O)(=O)c2ccc(C(=O)NNc3nc4ccc(Cl)cc4s3)cc2)CC1,"inconclusive [inhibitor, single point]",
COc1ccccc1N1C(C)=CC(=C(C#N)c2nc3ccccc3s2)C=C1C,"inconclusive [activator, single point]",
CC(=O)OC1c2c(ccc3ccc(=O)oc23)OC(C)(C)C1OC(=O)CC(C)C (centres undefined),"inconclusive [inhibitor, single point]",
Cc1cccc(NC(=O)c2ccc(NC(C)c3ccccc3)c([N+](=O)[O-])c2)n1 (centres undefined),active: 14.1 µM,
Cc1nc2ccccc2nc1OCc1ccccc1,,inactive: -3.12%
CN=C1C([N+](=O)[O-])=CC=C2C1=NC1(CCCCC1)N2O,,inactive: 14.6%
Cc1ccc(C)c2[nH]c(=O)c(CCNC(=O)c3ccco3)cc12,"inconclusive [activator, full curve, poor fit]",
O=C(NCCc1nc2ccccc2[nH]1)c1ccc(Cl)c([N+](=O)[O-])c1,"inconclusive [inhibitor, partial curve, poor fit]",
C/C=C(/C)C(=O)OC1c2c(ccc3ccc(=O)oc23)OC(C)(C)C1OC(C)=O (centres undefined),,inactive: -0.874%

SMILES,Potency,"activity change, negative = inhibition"
Cc1ccc(CN2CCC(N3CCC(C(=O)NCC4CCCO4)CC3)CC2)o1 (centres undefined),"inconclusive [activator, partial curve]",
O=C(NC1CCCCC1)[C@H](CSCc1ccccc1)N1Cc2ccccc2C1=O,"inconclusive [inhibitor, partial curve]",
CN1c2ccsc2/C(=N/Nc2ccccc2)CS1(=O)=O,"inconclusive [inhibitor, partial curve]",
CCN(CC)c1ccc(/C=N/N2CCN(Cc3ccccc3)CC2)cc1,active: 28.2 µM,
COc1ccc(-c2csc(-c3cc4ccccc4oc3=N)n2)cc1,"inconclusive [activator, partial curve]",
O=C1NCC(COCC2CC=CCC2)O1 (centres undefined),"inconclusive [inhibitor, partial curve]",
COCC(=O)N1CCC2(CC1)CN(Cc1nccs1)C2,"inconclusive [inhibitor, full curve, poor fit]",
Cc1ccccc1OCCNc1cc(N2CCN(CCO)CC2)ccc1[N+](=O)[O-],"inconclusive [inhibitor, single point]",
COc1ccc(OC)c(NC(=O)c2ccno2)c1,"inconclusive [inhibitor, single point]",
CCCCCCCCC1OC1CCCCCCCC(=O)O (centres undefined),,inactive: -14.5%
COc1cccc(Cn2c(=O)c(-c3ccccc3)nc3cnc(N(C)C)nc32)c1,"inconclusive [activator, partial curve]",
O=C1Nc2ccc([N+](=O)[O-])cc2OC1CCN1CCN(Cc2ccc3c(c2)OCO3)CC1 (centres undefined),,inactive: -6.31%
O=C(O)[C@H]1C[C@@H](CP(=O)(O)O)CCN1,,inactive: -12.9%
CCCCC/C=C\C/C=C\C/C=C\C/C=C\CCCCCC(=O)NCCCC(=O)O,,inactive: -1.47%
COc1ccc2nc(Nc3nc(-c4cc5ccccc5oc4=O)cs3)sc2c1,,inactive: 2.77%
c1ccc2c(c1)OCC(c1csc3ncnc(N4CCCCC4)c13)O2 (centres undefined),,inactive: -1.08%
O=C(NCc1ccccc1)Nc1cccn(Cc2ccccc2Cl)c1=O,"inconclusive [inhibitor, single point]",
COc1cccc(Nc2nc(N)c([N+](=O)[O-])c(NCc3ccccc3)n2)c1,"inconclusive [inhibitor, partial curve]",
C/C(=C\C(=S)Nc1ccccc1)Nc1ccc2ccccc2c1,"inconclusive [inhibitor, partial curve]",
COc1cc(/C=C2/C(=O)NN(c3cccc(C)c3)C2=O)ccc1OC(=O)c1ccco1,active: 25.1 µM,
COc1ccc(-c2[nH]c(-c3ccccc3)nc2SCC(=O)Nc2nccs2)cc1,"inconclusive [inhibitor, partial curve]",
O=C1CCc2cc(OCCCCc3nnnn3C3CCCCC3)ccc2N1,"inconclusive [inhibitor, full curve]",
CCCCCc1cc(=O)oc2c(C(CCN3CCCCC3)c3ccc4c(c3)OCO4)c(OC)cc(OC)c12 (centres undefined),"inconclusive [inhibitor, single point]",
